The whole screen tested about 310,000 compounds, of which about 14,000 (4.5%) showed an effect of 50% or more. The effect is printed as a negative number. The list shows a part of the results.
Biological target: human ether-à-go-go-related gene (hERG) potassium channel (human, UniProt Q12809)
Test: primary screen, population patch clamp on CHO cells stably expressing hERG
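Also: peak tail current of the secondary pulse compared with the same well before compound.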

human ether-à-go-go-related gene (hERG) potassium channel, sequence (Q12809 whole entry, looked up): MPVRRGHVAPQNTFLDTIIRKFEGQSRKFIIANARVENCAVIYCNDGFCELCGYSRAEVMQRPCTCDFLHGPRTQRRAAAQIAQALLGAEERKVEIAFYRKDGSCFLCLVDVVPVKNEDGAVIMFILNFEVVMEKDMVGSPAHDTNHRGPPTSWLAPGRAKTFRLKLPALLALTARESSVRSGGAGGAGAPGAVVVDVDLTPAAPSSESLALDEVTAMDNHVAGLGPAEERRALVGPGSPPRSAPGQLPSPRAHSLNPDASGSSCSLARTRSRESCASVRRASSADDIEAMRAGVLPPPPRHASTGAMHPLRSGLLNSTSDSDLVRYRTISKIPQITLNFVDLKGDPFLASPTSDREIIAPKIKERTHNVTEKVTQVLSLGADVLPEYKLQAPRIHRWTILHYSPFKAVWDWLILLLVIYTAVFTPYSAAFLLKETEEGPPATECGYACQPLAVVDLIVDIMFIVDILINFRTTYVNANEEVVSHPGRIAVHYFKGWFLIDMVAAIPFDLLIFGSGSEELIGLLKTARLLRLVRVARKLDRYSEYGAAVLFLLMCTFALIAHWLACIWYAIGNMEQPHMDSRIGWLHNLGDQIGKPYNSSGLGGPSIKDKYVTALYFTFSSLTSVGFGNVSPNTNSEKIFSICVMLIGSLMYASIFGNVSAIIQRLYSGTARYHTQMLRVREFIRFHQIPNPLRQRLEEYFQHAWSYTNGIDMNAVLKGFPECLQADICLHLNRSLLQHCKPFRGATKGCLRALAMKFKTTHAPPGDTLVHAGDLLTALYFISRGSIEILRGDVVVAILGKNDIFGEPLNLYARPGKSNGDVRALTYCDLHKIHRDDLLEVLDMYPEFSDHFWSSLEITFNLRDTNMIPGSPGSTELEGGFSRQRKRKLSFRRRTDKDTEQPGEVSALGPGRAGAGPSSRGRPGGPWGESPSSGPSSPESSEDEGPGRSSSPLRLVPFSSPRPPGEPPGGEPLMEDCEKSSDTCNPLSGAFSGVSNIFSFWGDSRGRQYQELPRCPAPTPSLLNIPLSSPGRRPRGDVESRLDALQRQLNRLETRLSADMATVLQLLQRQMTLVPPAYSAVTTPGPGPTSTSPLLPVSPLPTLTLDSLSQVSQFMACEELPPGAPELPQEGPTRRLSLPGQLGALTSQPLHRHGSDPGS

Compound	hERG current change (%, negative = inhibition) at 10uM
Cc1cc2n(c(=O)c1C#N)CCCN2c1cccc(Cl)c1	-65%
O=C(NC1CC1)C1CCCN1S(=O)(=O)c1ccc2ccccc2c1 (stereo not drawn)	0.266%
COc1cc2c(cc1NC(=O)COC(=O)/C=C/c1ccc([N+](=O)[O-])cc1)oc1ccccc12	-3.51%
COc1cc(CN2CCCCCC2)cc(OC)c1OC.O=C(O)C(=O)O	13.8%
CCN(CC)c1ccc(/C=N/NC(=O)c2ccc3nc[nH]c3c2)c(O)c1	21.4%
S=c1nc2c(n[nH]1)c1ccccc1n2CCc1ccccc1	17.9%
CCOc1ccc(-n2ccnc2SCC(=O)NCc2ccc3c(c2)OCO3)cc1	-31.6%
O=C(OCn1ncc(Br)c(Br)c1=O)c1ccc(F)cc1	-51.4%
CCN(CC)C(=O)CSc1nc(-c2cccs2)cc(-c2cccs2)c1C#N	-10.7%
Cn1c(-c2sc3cc(C(F)(F)F)cnc3c2-c2ccccn2)n[nH]c1=S	19.2%
CCC/C=N/Nc1nnc(Cc2ccccc2)c(=O)[nH]1	-11.5%
COc1ccc(S(=O)(=O)Nc2cccc3ccc(O)cc23)cc1	-1.13%
COc1cc(/C=C2\SC(=S)N(CCC(=O)N3CCN(C)CC3)C2=O)cc(OC)c1OC	-35.2%
COc1ccc(NC(=O)CN2CCN(c3ccccn3)CC2)cc1Cl	-17.4%
C/C(=N\NS(=O)(=O)c1ccc(C)cc1)c1ccc(C)o1	4.63%
C/C(CC(=O)Nc1ccc(Cl)cc1C(F)(F)F)=N\NC(=O)c1ccccn1	0.77%
CC1(C)CC(=O)C(N=Nc2cccc(F)c2C#N)=C(O)C1	13.2%
COc1ccc(-n2ncc3c(=O)n(CC(=O)NC(C)C)cnc32)cc1	1.54%
CCOC(=O)Cn1nnc(-c2cccc(OC)c2)n1	2.68%
O=C(CSc1nnc(Cc2ccccc2)o1)N1CCCC1	2.53%
COc1ccc(-c2nc3ncccn3c2Nc2ccccc2)cc1	-9.03%
COc1cc(C(=S)N2CCCCC2)ccc1OCC(=O)Nc1ccccc1Cl	18.9%

Compound	hERG current change (%, negative = inhibition) at 10uM
O=C(Cc1ccccc1)NC(=S)Nc1ccc(OC(F)F)cc1	-2.31%
CCN(CC)S(=O)(=O)c1ccc(C(=O)NCCCn2ccnc2)cc1	18.2%
COc1ccccc1-n1c(C)c(C(=O)O)c2cc(OC)c3ccccc3c21	12.2%
O=C(CN1CCOc2ccccc21)NCc1cccs1	8.26%
O=C(NCc1ccccn1)c1ccc(NS(=O)(=O)c2cccc([N+](=O)[O-])c2)cc1	11.3%
CCCc1nc2c(sc3nc4c(cc32)COC(C)(C)C4)c(=O)o1	69%
CCOC(=O)C(NC(C)=O)C(=O)Nc1ccc(C)cc1C (stereo not drawn)	15.7%
O=C(COC(=O)c1ccccc1NS(=O)(=O)c1cccs1)NC1CCCCC1	-12.9%
COc1ccc(CCNC(=O)Cc2ccc(NC3=NC4CS(=O)(=O)CC4S3)cc2)c(OC)c1 (stereo not drawn)	14.9%
O=C(COC(=O)CNC(=O)c1ccccc1F)Nc1cccc(S(=O)(=O)N2CCCCCC2)c1	-30.4%
COc1cccc(NC(=O)CSc2nc3ccccc3c(=O)n2CCCC(=O)NCC2CCCO2)c1 (stereo not drawn)	-70.3%
Cc1nn(C)c(C(=O)Nc2cccc(Nc3ccccc3)c2)c1[N+](=O)[O-]	1.05%
O=C(Nc1cccc(NC(=O)c2cccc(Cl)c2)c1)c1cccnc1	-16.3%
CCCC(=O)Nc1cc(C(=O)N(C)CC(OC)OC)ccc1S(=O)(=O)c1ccc(C)cc1	4.73%
CCCOC(=O)c1ccc(S(N)(=O)=O)o1	13.5%
Cc1ccc(N2C(=O)c3ccccc3C2Nc2ccccc2)nc1 (stereo not drawn)	2.74%
O=C(NNc1ccc(C(F)(F)F)cc1[N+](=O)[O-])c1ccc(NS(=O)(=O)c2ccc(F)cc2)cc1	-1.05%
COc1ccc(-c2sc3ccccc3c2C#CCO)cc1	16.8%
CCCc1cc(=O)[nH]c(SCc2cc(C(=O)OC)c(C)o2)n1	8.44%
COc1ccc(S(=O)(=O)N(C)c2ccc(C(=O)N3CCOCC3)cc2)cc1OC	-0.919%
O=C(CN1CCN(Cc2ccc(Cl)cc2)CC1)N/N=C/c1ccccc1F	-68.7%
Cc1ccc(OCC(=O)N(c2ccccn2)C2CCCCC2)c(C)c1	-5.83%

Compound	hERG current change (%, negative = inhibition) at 10uM
CCOc1cc(/C=C2\N=C(C)OC2=O)cc(Cl)c1OCC(=O)OC	-0.823%
Cc1cccc2sc(NC(=O)CCNS(=O)(=O)c3cccs3)nc12	-18.8%
CC(C)NC(=O)CSc1nccc(-c2cccs2)n1	8.75%
Cc1cccc(OCC(=O)N(C)c2c(N)n(Cc3ccccc3)c(=O)[nH]c2=O)c1C	14.2%
COc1ccc(C(C)=O)cc1CN1CCCCC1.Cl	8.02%
COc1ccc(-c2cnnn2-c2ccc(NC(=O)c3ccc(S(=O)(=O)N4CCCCC4)cc3)cc2)cc1	0.975%
Cc1ccc(C)c(N2CCN(S(=O)(=O)c3cc4c(cc3Cl)NC(=O)CO4)CC2)c1	13.3%
CCOc1ccc(C(C)NC(=O)c2ccccc2OCc2c(C)noc2C)cc1OCC (stereo not drawn)	-23.8%
CCOc1ccc(NC2=NC(C(=O)NCc3ccccc3)CC(=O)N2)cc1 (stereo not drawn)	1.86%
CCc1nnc(NC(=O)CSc2nc(-c3ccc(OC)cc3)ns2)s1	11.3%
CCOC(=O)c1ccccc1NC(=O)c1ccc(F)cc1	21.3%
CC(C)(C)NC(=O)N1CCCN(c2ccc(C(F)(F)F)cn2)CC1	-0.47%
Cc1[nH]c2ccccc2c1NC(=O)CN1CCN(c2cccc(C(F)(F)F)c2)CC1	-6.64%
CCc1ccc(NC(=O)NC2CCCCCCC2)cc1	9.86%
COc1cccc(Cn2c(Oc3cccc(C)c3)nc3c2c(=O)n(C)c(=O)n3C)c1	-9.7%
Cc1ccc2occ(/C=N/O)c(=O)c2c1	12.7%
Cc1[nH]c2ccccc2c1C(=O)CN1C(=O)C(=O)N(Cc2ccco2)C1=O	-5.26%
O=C(N/N=C/c1ccco1)c1cc(-c2ccc(Cl)s2)[nH]n1	2.96%
O=C(N/N=C/c1cccnc1)c1cc(-c2ccccc2Cl)nc2ccccc12	-40.6%
CCCCC[C@H](O)/C=C/[C@@H]1[C@@H](C/C=C\CCCC(=O)O)[C@@H](O)C[C@H]1O.NC(CO)(CO)CO	9.22%
CC(C)(C)OC(=O)NN1CC(=O)N2[C@@H](Cc3c([nH]c4ccccc34)C2(C)C)C1=O	27.7%
Cc1c(Br)cc(-c2nnco2)cc1Br	11.8%

Compound	hERG current change (%, negative = inhibition) at 10uM
O=C(Nc1nc(-c2ccccn2)cs1)c1ccc([N+](=O)[O-])o1	-1.32%
O=S(=O)(c1cc(F)ccc1F)N1CCN2CCCC2C1 (stereo not drawn)	17.7%
CC(=O)Nc1nonc1NC(C)=O	15.7%
COc1ccc(-n2c(O)c(C=Nc3ccccc3)c3ccccc3c2=O)cc1OC	14.2%
CCN(CC)S(=O)(=O)c1ccc(/C=C/C(=O)OCC(=O)Nc2ccc(C(N)=O)cc2)cc1	18.9%
COc1ccc(Br)cc1CN1CCN(C(=O)c2cccc(F)c2)CC1.O=C(O)C(=O)O	-39.2%
COc1ccccc1C(=O)N1c2ccccc2Sc2ccccc21	-6.03%
CC(=O)NC(NC(C)=O)c1ccc(Br)cc1	-4.97%
CCCCNC(=O)CN(c1cccc(F)c1)S(C)(=O)=O	-3.26%
c1ccc(-n2cnc3ccccc32)cc1	-4.05%
Cc1ccnc(NC(=O)COC(=O)C23CC4CC(CC(C4)C2)C3)n1	9.94%
COc1ccc(Cc2nn3c(Cn4nnc5ccccc54)nnc3s2)cc1	-17.2%
O=C(Nc1c2c(nn1-c1ccccc1)CS(=O)(=O)C2)c1ccccc1Br	-0.51%
Cc1cc(C(=O)COC(=O)CN=C2NS(=O)(=O)c3ccccc32)c(C)n1CCc1ccc(Cl)cc1	11.8%
Cc1cccc(C(=O)Nc2cccc(C(=O)N/N=C/c3ccncc3)c2)c1	-2.07%
Clc1ccccc1C1CC(c2ccccc2)=Nc2ccccc2N1 (stereo not drawn)	4.58%
CCC(=O)/C=C1\Sc2ccc(OC)cc2N1CCO	-0.298%
CSc1ncc(C(=O)Nc2cccnc2)c(C(F)(F)F)n1	7.5%
O=C(c1ccc(S(=O)(=O)N2CCCC2)cc1)N(c1ccc(F)cc1)C1C=CS(=O)(=O)C1 (stereo not drawn)	-39.8%
O=c1c(-c2nnc(SCc3ccc(Cl)cc3)o2)cccn1Cc1ccccc1	-46.2%
CCCn1nnc(NC(=O)c2cccc(OCc3ccccc3)c2)n1	11.9%

Reference: publication PMC4336329 (PLoS ONE, 2015)
